Test results published in PubChem BioAssay AID2675 (National Center for Advancing Translational Sciences (NCATS), 2010).
Among all 280,000 compounds or so, about 100 (0.036%) were called active. Inconclusive results, whose numbers are uncertain, are shown with a selection of clear calls. Calls come from the whole dose curve; as a rule, active = well fitted inhibition curve with a large enough effect in the signal ratio, with a control signal flat (not every such curve was filed as active); inconclusive = small, poorly fitted or top-dose-only effect, or effect the other way, or a change in a side signal; inactive = no such curve, though single readings can be large or run the other way; the % refers to the signal ratio. Potencies beside an inconclusive call are fits to weak or partial responses and may not hold up. A note “side channel” means that the fit belongs to a control or component signal, not to the main read-out.
Potency is the fitted concentration of half-maximal effect; tags give direction and shape of the fitted curve or compound fluorescence and quenching.

What follows are compounds tested against Muscleblind-like protein 1 (Homo sapiens) (UniProt Q9NR56) (assay: qHTS Assay for Inhibitors of MBNL1-poly(CUG) RNA binding). Conditions: TR-FRET MBNL1-His/biotin-(CUG)12 binding, 665/545 ratio; series mostly up to 57.5 µM.
Sequence of UniProt Q9NR56 (Q9NR56 whole entry, looked up): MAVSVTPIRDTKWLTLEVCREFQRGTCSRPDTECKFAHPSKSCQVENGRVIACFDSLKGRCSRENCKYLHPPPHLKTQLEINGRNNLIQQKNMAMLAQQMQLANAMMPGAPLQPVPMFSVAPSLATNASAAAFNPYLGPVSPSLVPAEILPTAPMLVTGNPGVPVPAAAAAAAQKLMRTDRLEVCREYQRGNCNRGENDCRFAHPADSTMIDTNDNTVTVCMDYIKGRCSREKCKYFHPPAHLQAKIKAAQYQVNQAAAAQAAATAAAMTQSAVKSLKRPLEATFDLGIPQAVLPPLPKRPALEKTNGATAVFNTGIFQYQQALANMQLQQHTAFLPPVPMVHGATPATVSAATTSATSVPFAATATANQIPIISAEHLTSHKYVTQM
Summary of the method: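 MBNL1-His + Biotin-(CUG)12, cpd titration 92 nM–58 uM; Tb anti-His Ab 0.055 ng/ul, SA-XL665 5 nM (final); 60 min RT; ratiometric 665/545 nm, Ex 340 nm; normalized to buffer and full-complex controls.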
In the case of `Cc1cccc(CS(=O)(=O)Cc2ccc(C(=O)NC(C)c3ccccc3)o2)c1` (stereo unspecified), the Potency is reported as “inactive”. In the case of `O=c1c2c([N+](=O)[O-])cc([N+](=O)[O-])cc2sn1Cc1ccccc1`, the Potency is reported as inconclusive: 14.1 µM [quencher, partial curve]. For `COC(=O)c1ccccc1NC(=O)c1ccccc1SC`, the Potency was inconclusive: 39.8 µM [inhibitor, single point]. For `COc1cc(/C=N\NC(=O)c2ccc(Cn3cc(Br)c([N+](=O)[O-])n3)o2)cc(OC)c1O`, the Potency was inconclusive: 14.1 µM [quencher, side channel, single point]. In the case of `COC(=O)Cc1c(C)[nH]n(-c2cc(Cl)cc(Cl)c2)c1=O`, the Potency is reported as inconclusive: 63.1 µM [inhibitor, partial curve]. In the case of `O=C1C(Cl)=C(N2CCCCCC2)C(=O)N1c1ccccc1Cl`, the Potency is reported as “inactive”. For `CC(=O)Nc1nc(C)c(-c2csc(Nc3ccccn3)n2)s1`, the Potency was inconclusive: 11.2 µM [quencher, side channel, partial curve]. In the case of `O=[N+]([O-])c1cc(S(=O)(=O)N2CCCC2)ccc1NCCCN1CCOCC1`, the Potency is reported as inconclusive: 14.1 µM [quencher, side channel, partial curve]. In the case of `CC(=O)Nc1ccc(S(=O)(=O)NCCNc2ccccc2[N+](=O)[O-])cc1`, the Potency is reported as inconclusive: 14.1 µM [quencher, side channel, partial curve]. In the case of `COc1ccc(OC)c(C(=O)/C=C/c2cccnc2)c1`, the Potency is reported as “inactive”. In the case of `CCCCNC(=O)C1CCC(CNS(=O)(=O)c2c(C)cc(C)cc2C)CC1` (stereo unspecified), the Potency is reported as “inactive”. For `O=C(O)c1ccc(CNC(=O)c2ccccc2NC(=O)c2ccc([N+](=O)[O-])cc2)cc1`, the Potency was inconclusive: 28.2 µM [quencher, side channel, partial curve]. For `COc1cc(CN2CCN(S(=O)(=O)c3ccc(NC(C)=O)cc3)CC2)cc(OC)c1O`, the Potency was “inactive”. `O=C(c1ccc(Cl)c(S(=O)(=O)N2CCOCC2)c1)N(c1ccccn1)C1CCCCC1` was tested, and the Potency was “inactive”. In the case of `CCC(C)NS(=O)(=O)c1ccc(OC)c(Cl)c1Cl` (stereo unspecified), the Potency is reported as “inactive”. With `CCN1CCN(c2cc(N3CCN(C(=O)c4ccco4)CC3)c3c4c(onc24)-c2ccccc2C3=O)CC1` the Potency was inconclusive: 14.1 µM [quencher, side channel, partial curve]. In the case of `CCc1ccc(NS(=O)(=O)c2cccc3nonc23)cc1`, the Potency is reported as inconclusive: 25.1 µM [quencher, side channel, partial curve]. In the case of `c1ccc(CSc2nnc3ccc(-c4ccncc4)nn23)cc1`, the Potency is reported as inconclusive: 3.55 µM [quencher, side channel, full curve, poor fit]. `CC(=O)NNC(=O)CN1C(=O)/C(=C/c2ccccc2)SC1=S` was tested, and the Potency was inconclusive: 1.41 µM [quencher, side channel, full curve, poor fit]. For `O=C(NN=C1c2ccccc2-c2ccccc21)c1ccccn1`, the Potency was “inactive”. `O=C(CCCO)N/N=C/c1ccccc1[N+](=O)[O-]` was tested, and the Potency was inconclusive: 14.1 µM [quencher, side channel, partial curve]. For `Cc1ccc(NC(=O)CN(C)C(=O)c2cccnc2Nc2cccc(C(F)(F)F)c2)cc1`, the Potency was “inactive”. `COc1ccc(CNC(=O)[C@H](C)N2C(=O)N3CCc4c([nH]c5ccccc45)[C@@]3(C)C2=O)cc1OC` was tested, and the Potency was “inactive”. With `COc1ccc(CCNC(=O)c2cc([N+](=O)[O-])cc([N+](=O)[O-])c2)cc1OC` the Potency was inconclusive: 7.08 µM [quencher, partial curve]. For `COc1ccc2[nH]c(=O)c(CNc3ccccc3)cc2c1`, the Potency was inconclusive: 4.47 µM [quencher, side channel, partial curve]. For `CCc1c(C)nc2cc(-c3ccccc3)[nH]n2c1=O`, the Potency was “inactive”. With `CC(=O)Nc1ccc(S(=O)(=O)NNC(=O)c2cccc([N+](=O)[O-])c2)cc1` the Potency was inconclusive: 15.8 µM [quencher, side channel, partial curve]. For `Cc1ccc2cc(C(c3nnnn3C(C)(C)C)N3CCCCCC3)c(=O)[nH]c2c1` (stereo unspecified), the Potency was inconclusive: 14.1 µM [quencher, side channel, partial curve]. `COC(=O)N/N=C/c1cc([N+](=O)[O-])cc(Br)c1O` was tested, and the Potency was inconclusive: 25.1 µM [quencher, side channel, partial curve]. With `Clc1ccc(Sc2ccc(/C=N/n3cnnc3)o2)cc1` the Potency was inconclusive: 14.1 µM [quencher, side channel, partial curve]. With `CN(C)C(CNC(=S)Nc1cccc(Cl)c1)c1ccccc1` (stereo unspecified) the Potency was “inactive”. In the case of `O=C(/C=C/c1ccc(F)cc1)NC(=S)N1CCOCC1`, the Potency is reported as inconclusive: 35.5 µM [quencher, side channel, single point]. With `CCN1/C(=C/c2ccc3ccccc3[n+]2CCCS(=O)(=O)[O-])C=Cc2cc(C)ccc21` the Potency was inconclusive: 12.6 µM [quencher, side channel, partial curve]. In the case of `CCOC(=O)C1CCN(c2ccc([N+](=O)[O-])cc2)CC1`, the Potency is reported as inconclusive: 22.4 µM [quencher, side channel, partial curve]. In the case of `CCC(C)(C)c1ccc(Oc2cccc(C(=O)O)c2)cc1`, the Potency is reported as “inactive”. `COc1ccc(-n2c(=S)[nH]c3sc4c(c3c2=O)CCN(C)C4)cc1` was tested, and the Potency was inconclusive: 17.8 µM [quencher, side channel, partial curve]. With `CCOc1ccc(/C=C/C(=O)N2CCOCC2)cc1OC` the Potency was “inactive”. For `O=C(COc1ccc(/C=N/NC(=O)CSCc2ccc([N+](=O)[O-])cc2)cc1)NCc1ccco1`, the Potency was inconclusive: 15.8 µM [quencher, side channel, partial curve]. In the case of `CN1/C(=C/C=C(/C#N)C(N)=O)C(C)(C)c2ccccc21`, the Potency is reported as inconclusive: 14.1 µM [quencher, side channel, partial curve]. `CCOC(=O)CNC(=O)CSc1ccc2nnc(-c3ccc(F)cc3)n2n1` was tested, and the Potency was inconclusive: 28.2 µM [quencher, side channel, single point]. In the case of `CC(=O)NC(Cc1ccccc1)C(=O)NC1CCN(C(=O)c2ccc([N+](=O)[O-])cc2)CC1` (stereo unspecified), the Potency is reported as inconclusive: 28.2 µM [activator, single point].
